{"source": "paper PMC4336329", "about": "(PLoS ONE, 2015)", "note": "The campaign covered roughly 310,000 compounds. About 2,200 (0.71%) showed an effect of 50% or more. Effects have a minus sign here. The list shows a part of the results.", "data": [{"target": "human ether-à-go-go-related gene (hERG) potassium channel (human, UniProt Q12809)", "sequence (Q12809 whole entry, looked up)": "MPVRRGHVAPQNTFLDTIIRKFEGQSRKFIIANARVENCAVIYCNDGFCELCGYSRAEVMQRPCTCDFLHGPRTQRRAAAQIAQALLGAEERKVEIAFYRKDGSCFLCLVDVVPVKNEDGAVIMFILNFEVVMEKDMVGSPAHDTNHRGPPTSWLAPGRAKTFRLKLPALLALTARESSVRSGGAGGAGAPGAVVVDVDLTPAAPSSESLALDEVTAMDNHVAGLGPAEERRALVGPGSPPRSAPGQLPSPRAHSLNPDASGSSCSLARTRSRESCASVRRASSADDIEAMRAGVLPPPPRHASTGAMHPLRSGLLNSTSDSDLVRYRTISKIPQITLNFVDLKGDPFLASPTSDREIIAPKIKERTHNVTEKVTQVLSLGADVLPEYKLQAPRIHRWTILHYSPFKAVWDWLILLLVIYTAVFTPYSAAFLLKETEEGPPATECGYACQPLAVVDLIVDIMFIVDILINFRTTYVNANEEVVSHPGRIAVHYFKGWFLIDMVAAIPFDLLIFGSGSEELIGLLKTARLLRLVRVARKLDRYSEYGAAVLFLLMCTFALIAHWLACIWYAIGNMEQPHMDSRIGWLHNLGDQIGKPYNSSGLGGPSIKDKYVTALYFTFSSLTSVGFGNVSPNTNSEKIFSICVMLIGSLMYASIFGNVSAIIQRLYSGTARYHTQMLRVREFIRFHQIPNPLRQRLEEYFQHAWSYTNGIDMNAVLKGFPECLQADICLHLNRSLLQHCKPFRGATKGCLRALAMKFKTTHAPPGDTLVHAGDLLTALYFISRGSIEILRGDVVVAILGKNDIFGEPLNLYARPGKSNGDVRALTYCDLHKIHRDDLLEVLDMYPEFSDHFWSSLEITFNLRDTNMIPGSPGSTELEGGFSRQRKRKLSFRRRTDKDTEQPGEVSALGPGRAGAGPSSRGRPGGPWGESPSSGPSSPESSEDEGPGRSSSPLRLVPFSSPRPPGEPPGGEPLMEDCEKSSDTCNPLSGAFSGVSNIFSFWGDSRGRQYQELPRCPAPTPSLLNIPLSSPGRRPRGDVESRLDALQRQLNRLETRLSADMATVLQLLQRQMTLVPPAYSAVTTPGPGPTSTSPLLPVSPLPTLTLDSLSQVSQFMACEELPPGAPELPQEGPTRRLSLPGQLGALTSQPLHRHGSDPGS", "test": "primary screen, population patch clamp on CHO cells stably expressing hERG", "units": {"hERG current change (%, negative = inhibition) at 1uM": "%"}, "values": [{"smiles": "Cc1ccc(S(=O)(=O)N(C)CC(=O)N2CCN(C(=O)c3ccco3)CC2)cc1.Cl", "hERG current change (%, negative = inhibition) at 1uM": -29.8}, {"smiles": "COc1ccc(NC(C)=O)cc1NC(C)C(=O)Nc1cc(C(F)(F)F)ccc1N1CCOCC1", "note": "(stereo not shown)", "hERG current change (%, negative = inhibition) at 1uM": -13.4}, {"smiles": "O=S(=O)(c1ccccc1Cl)N1CCCC1c1nc(-c2ccc(Cl)cc2)no1", "note": "(stereo not shown)", "hERG current change (%, negative = inhibition) at 1uM": 15.6}, {"smiles": "O=C(CN1C(=O)NC2(CCCCCCC2)C1=O)NCc1cccs1", "hERG current change (%, negative = inhibition) at 1uM": -5.26}, {"smiles": "Cc1c(NC(=O)Nc2ccc(Cl)c(Cl)c2)sc(=S)n1C", "hERG current change (%, negative = inhibition) at 1uM": 5.23}, {"smiles": "Cc1c(NC(=S)NNC(=O)CCC(=O)O)c(=O)n(-c2ccccc2)n1C", "hERG current change (%, negative = inhibition) at 1uM": -1.32}, {"smiles": "Cc1ccc(N(C(=O)NC2CCCCC2)C2=NCCCCC2)cc1", "hERG current change (%, negative = inhibition) at 1uM": 20.8}, {"smiles": "COc1ccc(CCNC(=O)CCC(=O)c2cccs2)cc1OC", "hERG current change (%, negative = inhibition) at 1uM": 16.7}, {"smiles": "CCCCOCCCNC(=O)N[C@H](C(=O)O)C(C)CC", "note": "(stereo partly shown)", "hERG current change (%, negative = inhibition) at 1uM": 6.97}, {"smiles": "COCCN(C(=O)c1ccc(N2CCCC2=O)cc1)c1c(N)n(Cc2ccccc2)c(=O)[nH]c1=O", "hERG current change (%, negative = inhibition) at 1uM": 9.74}, {"smiles": "COc1ccc2oc(C(=O)OCC(=O)N(C)c3c(N)n(Cc4ccccc4)c(=O)[nH]c3=O)c(C)c2c1", "hERG current change (%, negative = inhibition) at 1uM": 8.06}, {"smiles": "CCOC(=O)C(CC)Sc1nnc2n1C(C)(C)Cc1ccccc1-2", "note": "(stereo not shown)", "hERG current change (%, negative = inhibition) at 1uM": 4.93}, {"smiles": "O=C(CN1CCCCC1)N1CCN(c2ccccc2)CC1", "hERG current change (%, negative = inhibition) at 1uM": 3.88}, {"smiles": "COc1ccc(N/C(C)=C/C(=O)c2ccccc2)cc1", "hERG current change (%, negative = inhibition) at 1uM": -1.79}, {"smiles": "O=C1/C(=C/c2ccco2)CCc2ccccc21", "hERG current change (%, negative = inhibition) at 1uM": 5.8}, {"smiles": "OC(COc1cccc2ccccc12)CN1CCCC1", "note": "(stereo not shown)", "hERG current change (%, negative = inhibition) at 1uM": -1.17}, {"smiles": "Nn1c(SCc2ccccc2)nnc1-c1ccccn1", "hERG current change (%, negative = inhibition) at 1uM": 15.1}, {"smiles": "CC1(C)CC2(CCO1)N1CC3(C)CN2CC(C)(C1)C3=O", "note": "(stereo not shown)", "hERG current change (%, negative = inhibition) at 1uM": 0.82}, {"smiles": "CCCN(C(=O)CSc1nnnn1C)c1c(N)n(Cc2ccccc2)c(=O)[nH]c1=O", "hERG current change (%, negative = inhibition) at 1uM": 14.9}, {"smiles": "CC1=C(C(N)=O)C(c2cccnc2)n2nc(-c3cccc(Cl)c3)nc2N1", "note": "(stereo not shown)", "hERG current change (%, negative = inhibition) at 1uM": 17.7}, {"smiles": "COc1ccc(NC(=O)Cc2ccccc2)cn1", "hERG current change (%, negative = inhibition) at 1uM": -4.62}, {"smiles": "Cc1cccc(-c2nsc(SCC(=O)NCC3CCCO3)n2)c1", "note": "(stereo not shown)", "hERG current change (%, negative = inhibition) at 1uM": 12.6}, {"smiles": "C/C(=N\\N1CCCCC1)c1ccccc1O", "hERG current change (%, negative = inhibition) at 1uM": 13.2}, {"smiles": "CC(/C=N/Nc1nc2ccccc2[nH]1)=C\\c1ccccc1", "hERG current change (%, negative = inhibition) at 1uM": -5.45}, {"smiles": "O=C(CC(Nc1ccccc1)c1ccccc1)C1CC1", "note": "(stereo not shown)", "hERG current change (%, negative = inhibition) at 1uM": 6.83}, {"smiles": "COc1ccccc1NS(=O)(=O)c1cc(NC(=O)c2sc3cc(Cl)ccc3c2Cl)ccc1C", "hERG current change (%, negative = inhibition) at 1uM": 14.1}, {"smiles": "C=CCc1ccccc1OCC(O)CN(C(C)C)C(C)C.Cl", "note": "(stereo not shown)", "hERG current change (%, negative = inhibition) at 1uM": -27.1}, {"smiles": "CCOC(=O)NN1C(=O)c2ccccc2NC1c1ccc(OC)c(OC)c1", "note": "(stereo not shown)", "hERG current change (%, negative = inhibition) at 1uM": 21.4}, {"smiles": "Cc1nc(-c2cccc(S(=O)(=O)N3CC(C)OC(C)C3)c2)cs1", "note": "(stereo not shown)", "hERG current change (%, negative = inhibition) at 1uM": -3.83}, {"smiles": "CCC(c1nnc(SCC(=O)NC2CCCCC2)n1Cc1ccccc1)N(C)C", "note": "(stereo not shown)", "hERG current change (%, negative = inhibition) at 1uM": 3.79}, {"smiles": "O=C(COC(=O)c1ccccn1)c1ccc(Br)cc1", "hERG current change (%, negative = inhibition) at 1uM": 8.41}, {"smiles": "CC(=O)Oc1ccc(C(=O)Nc2ccccc2C(=O)N2CCCCC2)cc1", "hERG current change (%, negative = inhibition) at 1uM": 8.98}, {"smiles": "CCOC(=O)N1CCN(C(=O)CCCn2c(=S)[nH]c3ccccc3c2=O)CC1", "hERG current change (%, negative = inhibition) at 1uM": 8.69}, {"smiles": "CC(C)(C)OC(=O)NCc1ccc(NC(=O)c2nc[nH]c2C(=O)N[C@@H](Cc2ccccc2)C(=O)OC(C)(C)C)cc1", "hERG current change (%, negative = inhibition) at 1uM": 5.81}, {"smiles": "CN(CCNC(=O)c1cccc(N2CCCC2=O)c1)Cc1ccccc1", "hERG current change (%, negative = inhibition) at 1uM": 5.8}, {"smiles": "CCCCCCn1c(=O)c(C(=O)Nc2cnccn2)c(O)c2ccccc21", "hERG current change (%, negative = inhibition) at 1uM": 11.1}, {"smiles": "Cc1ccc(-c2csc(N=C(N)N)n2)c(C)c1", "hERG current change (%, negative = inhibition) at 1uM": 12.7}, {"smiles": "O=S(=O)(c1ccc(Br)s1)N1CCC2(CC1)OCCO2", "hERG current change (%, negative = inhibition) at 1uM": 14.1}, {"smiles": "COCCNC(=O)c1cc(Sc2nnc(C)s2)nc2ccccc12", "hERG current change (%, negative = inhibition) at 1uM": 2.29}, {"smiles": "NC1=NS(=O)(=O)NC1c1ccc(F)cc1", "note": "(stereo not shown)", "hERG current change (%, negative = inhibition) at 1uM": 11.9}, {"smiles": "CC(C)CCN1CC(C(=O)N2CCN(c3ccc(F)cc3)CC2)CC1=O", "note": "(stereo not shown)", "hERG current change (%, negative = inhibition) at 1uM": -6.29}, {"smiles": "Cc1cc(NC(=O)CN(C)S(=O)(=O)c2ccc(-c3ccc(=O)[nH]n3)s2)ccc1Br", "hERG current change (%, negative = inhibition) at 1uM": 10.7}, {"smiles": "CCOc1c2ccc(C(=O)NCCc3ccc(C)cc3)cc2nn1CC", "hERG current change (%, negative = inhibition) at 1uM": 2.41}, {"smiles": "Cc1ccccc1NC(=S)N(Cc1cccnc1)Cc1ccco1", "hERG current change (%, negative = inhibition) at 1uM": 8.15}, {"smiles": "COc1cccc(C(=O)O/N=C(\\N)c2ccc([N+](=O)[O-])cc2)c1OC", "hERG current change (%, negative = inhibition) at 1uM": 6.22}, {"smiles": "CC(=O)Nc1ccc(NC(=O)c2cccc(Oc3ccccc3)c2)cc1", "hERG current change (%, negative = inhibition) at 1uM": 12}, {"smiles": "CCCCC(=O)Nc1sc2c(c1C#N)CC(C)(C)OC2", "hERG current change (%, negative = inhibition) at 1uM": 10.9}, {"smiles": "Cc1ccc(S(=O)(=O)NCC(=O)OC2CCOC2=O)cc1", "note": "(stereo not shown)", "hERG current change (%, negative = inhibition) at 1uM": 1.01}, {"smiles": "C=CCNC(=O)c1c(O)c2cccc3c2n(c1=O)CCC3", "hERG current change (%, negative = inhibition) at 1uM": 14.3}, {"smiles": "COc1ccc(N2CCN(S(=O)(=O)CCNC(=O)/C=C/c3ccccc3)CC2)cc1", "hERG current change (%, negative = inhibition) at 1uM": -5.44}, {"smiles": "CC(C)(C)c1ccc(-c2noc(CCC(N)=O)n2)cc1", "hERG current change (%, negative = inhibition) at 1uM": 7.93}, {"smiles": "CSc1nnc(C)c(=O)n1COC(=O)/C=C/c1ccccc1", "hERG current change (%, negative = inhibition) at 1uM": 7.67}, {"smiles": "Cc1ccc(S(=O)(=O)NCCC(=O)NCC(c2cccs2)N2CCOCC2)cc1", "note": "(stereo not shown)", "hERG current change (%, negative = inhibition) at 1uM": 2.91}, {"smiles": "CCN(CC(=O)Nc1c(F)cccc1F)C(=O)CSc1nc2ccccc2o1", "hERG current change (%, negative = inhibition) at 1uM": 1.98}, {"smiles": "CC(=O)Cc1nsc(NC(=O)c2ccc(-c3ccc(Cl)c(C(F)(F)F)c3)o2)n1", "hERG current change (%, negative = inhibition) at 1uM": 11.4}, {"smiles": "CCc1nc(NCCC(C)C)c2nnn(Cc3ccccc3)c2n1", "hERG current change (%, negative = inhibition) at 1uM": 13.4}, {"smiles": "CC1CN(CCCOc2ccccc2-c2ccccc2)CC(C)O1.O=C(O)C(=O)O", "note": "(stereo not shown)", "hERG current change (%, negative = inhibition) at 1uM": 4.54}, {"smiles": "CC(=O)Nc1ccc2c(c1)CCCN2C(=O)c1ccccc1", "hERG current change (%, negative = inhibition) at 1uM": 10.8}]}]}
